Screen size: about 370,000 compounds; about 150 (0.041%) were called active. The shares of active, inactive and inconclusive entries below differ from those in the screen. The call rests on the fitted dose curve; in most records, active means well fitted inhibition curve with a large enough effect; inconclusive means small, poorly fitted or top-dose-only effect; inactive means flat fitted curve, though single readings scatter. No potency is given beside an inconclusive call; the fits are too rough. Peptide text beside a SMILES is read from it.
These compounds were tested against Beta-lactamase (Escherichia coli (strain K12)) (UniProt P00811) (assay: qHTS Inhibitors of AmpC Beta-Lactamase (assay with detergent)). Details: AmpC hydrolysis of nitrocefin, absorbance 480 nm, 0.01% Triton; activity change, negative = inhibition: at 114 µM (top of the series).
Sequence of UniProt P00811 (P00811 whole entry, looked up): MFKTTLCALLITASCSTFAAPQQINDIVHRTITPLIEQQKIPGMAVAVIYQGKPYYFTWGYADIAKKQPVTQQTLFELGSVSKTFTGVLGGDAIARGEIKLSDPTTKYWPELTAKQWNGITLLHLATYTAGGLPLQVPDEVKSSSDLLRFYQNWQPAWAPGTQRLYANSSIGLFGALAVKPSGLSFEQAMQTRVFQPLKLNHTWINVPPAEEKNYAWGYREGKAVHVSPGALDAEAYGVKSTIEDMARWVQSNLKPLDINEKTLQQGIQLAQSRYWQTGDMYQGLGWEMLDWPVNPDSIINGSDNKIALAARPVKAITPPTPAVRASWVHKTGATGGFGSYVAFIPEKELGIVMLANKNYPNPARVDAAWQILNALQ
Outline: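 20 mM phosphate pH 7.0 + 0.01% (detergent screen) or 0.0001% Triton X-100; 5.3 nM AmpC reagent; cpd preinc 15 min RT; nitrocefin (800 uM stock) to start; A480 q20 s × 4 min; Activity was normalised to no-enzyme and no-compound control wells.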
`CCCCN(C(=O)CN1CCOCC1)c1c(N)n(CC(C)C)c(=O)[nH]c1=O` was tested, and the Potency was inconclusive [inhibitor, full curve, poor fit].
For `CCOC(=O)/C(=N\Nc1ccc(Br)cc1)N1CCN(c2ccccc2OC)CC1`, the “activity change, negative = inhibition” value was inactive: -3.38%.
In the case of `Nc1nc2ccc(C(=O)Nc3ccccc3)cc2s1`, the “activity change, negative = inhibition” value is reported as inactive: 2.66%.
With `CCn1nc(C)c2c(-c3ccccc3)cc(=O)n(C(C)C(=O)Nc3cccc(F)c3)c21` (stereo unspecified) the “activity change, negative = inhibition” value was inactive: 29.5%.
`CCOC(=O)CSc1nnc(COc2ccc3ccccc3c2)o1` was tested, and the Potency was inconclusive [inhibitor, partial curve].
With `Cc1ccc(N2CC(C(=O)Oc3cccc(N4C(=O)CCC4=O)c3)CC2=O)cc1` (stereo unspecified) the Potency was inconclusive [inhibitor, full curve, poor fit].
For `COc1cc(F)c(S(=O)(=O)N2CCOc3ccccc32)cc1OC`, the Potency was inconclusive [inhibitor, partial curve, poor fit].
In the case of `CCOC(=O)C1CCN(C(C(=O)NC2CCCC2)c2ccc(C)cc2)CC1` (stereo unspecified), the Potency is reported as inconclusive [inhibitor, full curve].
`COc1cccc(NC(=O)N2CCCC2C(=O)NC23CC4CC(CC(C4)C2)C3)c1` (stereo unspecified) was tested, and the “activity change, negative = inhibition” value was inactive: 0.213%.
With `CC(=O)c1cccc(CN2CCC(C(=O)Nc3cccc(-c4ccn[nH]4)c3)CC2)c1` the Potency was inconclusive [inhibitor, full curve].
For `Cc1ccc(C#N)c(SCc2cc3c(cc2Cl)OCO3)n1`, the Potency was inconclusive [inhibitor, single point].
With `COCCNC(=O)CCCn1c(SCC(=O)c2ccc(F)cc2)nc2c(sc3ccccc32)c1=O` the Potency was inconclusive [inhibitor, single point].
In the case of `CCc1nc(SCC(=O)N2CCCc3ccccc32)c2oc3ccccc3c2n1`, the Potency is reported as inconclusive [inhibitor, full curve, poor fit].
In the case of `CCOC(=O)c1nn(-c2ccccc2C)c2nc(CC(C)C)c(C#N)c(=O)n12`, the Potency is reported as inconclusive [inhibitor, single point].
For `CC(C)(C)NS(=O)(=O)c1ccc(NS(C)(=O)=O)cc1`, the Potency was inconclusive [inhibitor, single point].
`CC(CN)(NS(=O)(=O)c1ccccc1)c1ccccc1` (stereo unspecified) was tested, and the Potency was inconclusive [inhibitor, full curve, poor fit].
`Cc1ccc(C(=O)c2nc3c(n2O)CCCC3)cc1` was tested, and the “activity change, negative = inhibition” value was inactive: 4.42%.
With `O=C(Nc1ccc(F)cc1F)c1cc2ncc(CCCl)cn2n1` the Potency was inconclusive [inhibitor, partial curve].
For `COc1ccc(NS(=O)(=O)c2cc(N/C(=N\S(=O)(=O)c3ccccc3)c3ccc(F)cc3)ccc2Cl)cc1`, the “activity change, negative = inhibition” value was inactive: -9.72%.
In the case of `COc1ccc2sc(NC(C)=O)nc2c1`, the Potency is reported as inconclusive [inhibitor, single point].
In the case of `COc1ccc(-n2nnc3c(=O)n(C/C=C/c4ccccc4)cnc32)cc1`, the Potency is reported as inconclusive [inhibitor, full curve].
For `O=C(O)CCCNC(=O)OCc1ccccc1`, the Potency was inconclusive [inhibitor, partial curve].
With `COc1ccc(OC)c(NC(=O)c2nc(S(=O)(=O)Cc3ccccc3)ncc2Cl)c1` the Potency was inconclusive [inhibitor, full curve, poor fit].
`NC(=O)c1ccsc1NC(=O)CCS(=O)(=O)c1ccccc1` was tested, and the “activity change, negative = inhibition” value was inactive: -14%.
For `O=C(c1cccs1)C1CN2CCC1CC2` (stereo unspecified), the Potency was inconclusive [inhibitor, partial curve].
For `CC1=NN(c2ccc(C)c(C)c2)C(=O)/C1=C\C=C\c1ccc([N+](=O)[O-])o1`, the “activity change, negative = inhibition” value was inactive: -0.239%.
`CNC(=O)CCc1[nH]c2ccccc2c1Sc1ccccc1` was tested, and the “activity change, negative = inhibition” value was inactive: -1.61%.
In the case of `CN1C(=O)C(O)(CC(=O)c2ccccc2O)c2cc(Br)ccc21` (stereo unspecified), the Potency is reported as inconclusive [inhibitor, full curve].
With `CC(C)C[C@H](NC(=O)[C@@H]1CCCN1C(=O)[C@@H](N)Cc1ccc(O)cc1)C(=O)NCC(N)=O` (H-YPLG-NH2) the Potency was inconclusive [inhibitor, full curve, poor fit].
With `CC1(c2ccc(OC(F)F)cc2)NC(=O)N(CC(=O)Nc2ccc(Cl)cc2F)C1=O` (stereo unspecified) the Potency was inconclusive [inhibitor, full curve, poor fit].
For `CN(C)c1ccc(/C=C(\NC(=O)c2ccccc2)C(=O)NCCCN2CCOCC2)cc1`, the “activity change, negative = inhibition” value was inactive: 2.27%.
For `COc1ccc(-c2cn(-c3ccc(Br)cc3)c3[n+]2CCS3)cc1`, the Potency was inconclusive [inhibitor, partial curve].
For `COc1ccc(NC(=O)C2CCCN(S(=O)(=O)c3cccs3)C2)cc1OC` (stereo unspecified), the Potency was inconclusive [inhibitor, full curve, poor fit].
With `COc1ccc(NC(=O)c2ccco2)c(NC(=O)Cc2cccs2)c1` the Potency was inconclusive [inhibitor, partial curve].
`O=C(Nc1cccc2ccccc12)N1CCN(Cc2ccc3c(c2)OCO3)CC1` was tested, and the Potency was inconclusive [inhibitor, single point].
In the case of `Cc1cc(=O)oc2c(C)c(OCC(=O)N3CCC(C(=O)O)CC3)ccc12`, the Potency is reported as inconclusive [inhibitor, full curve].
With `O=C(COc1ccc(Cl)cc1)Nc1ccccc1CO` the Potency was inconclusive [inhibitor, full curve].
`CCOC(=O)Cn1c(=O)c2c(nc3n2CCS3)n(C)c1=O` was tested, and the Potency was inconclusive [inhibitor, full curve].
For `O=C(NCC(c1cccnc1)N1CCN(c2ccccc2F)CC1)OCc1ccccc1` (stereo unspecified), the Potency was inconclusive [inhibitor, single point].
For `Cc1ccc(-c2nc(CSCC(=O)N3CCN(C(=O)c4ccco4)CC3)c(C)o2)cc1`, the “activity change, negative = inhibition” value was inactive: -6.11%.
In the case of `O=C(NCC1CCCO1)C1CC(c2ccccc2Cl)=NO1` (stereo unspecified), the Potency is reported as inconclusive [inhibitor, single point].
With `CCOC(=O)C(C)C1(O)c2ccccc2-c2ncccc21` (stereo unspecified) the “activity change, negative = inhibition” value was inactive: -10.2%.
With `COc1ccc(CNC(=O)C2CCN(S(=O)(=O)c3ccc4nc5c(c(C(=O)O)c4c3)CCCC5)CC2)cc1` the “activity change, negative = inhibition” value was inactive: -8.51%.
For `O=C(CCc1nc2ccccc2c(=O)[nH]1)NCC(=O)Nc1ccc(F)c(F)c1`, the Potency was inconclusive [inhibitor, partial curve, poor fit].
`CCC(C)/C=C/C1=CC2=C(Cl)C(=O)C3(C)OC(=O)C(C(=O)C(C)C(C)O)C3C2=CO1` (stereo unspecified) was tested, and the “activity change, negative = inhibition” value was inactive: -5.64%.
`COc1cc(C(=S)N2CCOCC2)cc(OC)c1OC(=O)c1cccc(C)c1` was tested, and the Potency was inconclusive [inhibitor, partial curve, poor fit].
`Cc1ccc(C(=O)OC2OC(=O)C(Cl)=C2N2CCOCC2)cc1` (stereo unspecified) was tested, and the Potency was active: 11.2 µM.
For `CC(C)Cc1nnc(NC(=O)CCC(=O)N2CCN(c3ccccn3)CC2)s1`, the Potency was inconclusive [inhibitor, full curve, poor fit].
With `O=C(N/N=C/c1cccc(Br)c1)c1ccc(Br)cc1` the “activity change, negative = inhibition” value was inactive: -16%.
For `Cc1ccc(-c2nnc(N3CCN(C(=O)COc4cccc(C)c4)CC3)c3ccccc23)cc1`, the “activity change, negative = inhibition” value was inactive: -9.08%.
With `Cc1c(Cl)cccc1NC(=S)NCCN1CCOCC1` the Potency was inconclusive [inhibitor, full curve, poor fit].
With `CCOc1ccc(-n2nc3c(SCCN4CCCC4)nnc(C)c3c2C)cc1` the “activity change, negative = inhibition” value was inactive: -5.7%.
In the case of `O=C1CC(NCc2ccncc2)C(=O)N1c1ccc(Cl)cc1` (stereo unspecified), the Potency is reported as inconclusive [inhibitor, single point].
`O=C(c1ccco1)N1CCN(C(c2ccccc2F)c2nnnn2Cc2cccs2)CC1` (stereo unspecified) was tested, and the Potency was inconclusive [inhibitor, partial curve, poor fit].
`c1ccc(CCNc2ccc3nncn3n2)cc1` was tested, and the Potency was inconclusive [inhibitor, full curve, poor fit].
In the case of `COc1cccc(C(=O)NC2CC(C)(C)NC(C)(C)C2)c1OC`, the Potency is reported as inconclusive [inhibitor, full curve, poor fit].
In the case of `Cc1cc(Nc2ccc(C)c(Br)c2)n2nc(C)nc2n1`, the Potency is reported as inconclusive [inhibitor, full curve, poor fit].
`Cn1c(N)c(C(=O)COC(=O)C2(c3ccccc3F)CCCC2)c(=O)n(C)c1=O` was tested, and the Potency was inconclusive [inhibitor, full curve, poor fit].
In the case of `COc1ccccc1NC(=O)C1=C(C)Nc2nc(SCc3ccccc3F)nn2C1c1ccncc1` (stereo unspecified), the Potency is reported as inconclusive [inhibitor, full curve, poor fit].
`CC(C)Cc1nn2c(=O)cc(COC(=O)c3ccccc3NC(=O)c3cccs3)nc2s1` was tested, and the “activity change, negative = inhibition” value was inactive: 3.95%.
With `O=C(c1sc2cccc(F)c2c1Cl)N1CCN(c2ncccn2)CC1` the Potency was inconclusive [inhibitor, single point].
For `O=C(c1cccc(C(F)(F)F)c1)c1c[nH]c(C(=O)NCC2CCCO2)c1` (stereo unspecified), the Potency was inconclusive [inhibitor, full curve, poor fit].
In the case of `CCOC(=O)C1=C(COC(=O)/C=C/c2cccc(Br)c2)NC(=O)NC1C` (stereo unspecified), the Potency is reported as inconclusive [inhibitor, full curve, poor fit].
For `O=C(COc1ccccc1Cl)NNC(=O)c1ccc(-n2cncn2)c([N+](=O)[O-])c1`, the Potency was inconclusive [inhibitor, single point].
For `N#Cc1ccccc1-c1ccccc1C(=O)N1CCCCC1`, the Potency was inconclusive [inhibitor, full curve, poor fit].
In the case of `C/C(=N\NC(=O)c1cc(C(C)C)[nH]n1)c1ccncc1`, the Potency is reported as inconclusive [inhibitor, full curve, poor fit].
Further: nearly all actives have a fitted effect of over 25% in size.
Potency means the concentration at half of the fitted maximal effect; tags describe the fitted curve by direction and shape.
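Wherever activity change, negative = inhibition is given: 0% = no-compound wells and -100% = no-enzyme wells.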
